Out of some 310,000 compounds screened, about 2,200 (0.71%) showed an effect of 50% or more. The effect is printed as a negative number. This is one part of the list.
target: human ether-à-go-go-related gene (hERG) potassium channel (human, UniProt Q12809); assay: primary screen, population patch clamp on CHO cells stably expressing hERG
Sequence (Q12809 whole entry, looked up): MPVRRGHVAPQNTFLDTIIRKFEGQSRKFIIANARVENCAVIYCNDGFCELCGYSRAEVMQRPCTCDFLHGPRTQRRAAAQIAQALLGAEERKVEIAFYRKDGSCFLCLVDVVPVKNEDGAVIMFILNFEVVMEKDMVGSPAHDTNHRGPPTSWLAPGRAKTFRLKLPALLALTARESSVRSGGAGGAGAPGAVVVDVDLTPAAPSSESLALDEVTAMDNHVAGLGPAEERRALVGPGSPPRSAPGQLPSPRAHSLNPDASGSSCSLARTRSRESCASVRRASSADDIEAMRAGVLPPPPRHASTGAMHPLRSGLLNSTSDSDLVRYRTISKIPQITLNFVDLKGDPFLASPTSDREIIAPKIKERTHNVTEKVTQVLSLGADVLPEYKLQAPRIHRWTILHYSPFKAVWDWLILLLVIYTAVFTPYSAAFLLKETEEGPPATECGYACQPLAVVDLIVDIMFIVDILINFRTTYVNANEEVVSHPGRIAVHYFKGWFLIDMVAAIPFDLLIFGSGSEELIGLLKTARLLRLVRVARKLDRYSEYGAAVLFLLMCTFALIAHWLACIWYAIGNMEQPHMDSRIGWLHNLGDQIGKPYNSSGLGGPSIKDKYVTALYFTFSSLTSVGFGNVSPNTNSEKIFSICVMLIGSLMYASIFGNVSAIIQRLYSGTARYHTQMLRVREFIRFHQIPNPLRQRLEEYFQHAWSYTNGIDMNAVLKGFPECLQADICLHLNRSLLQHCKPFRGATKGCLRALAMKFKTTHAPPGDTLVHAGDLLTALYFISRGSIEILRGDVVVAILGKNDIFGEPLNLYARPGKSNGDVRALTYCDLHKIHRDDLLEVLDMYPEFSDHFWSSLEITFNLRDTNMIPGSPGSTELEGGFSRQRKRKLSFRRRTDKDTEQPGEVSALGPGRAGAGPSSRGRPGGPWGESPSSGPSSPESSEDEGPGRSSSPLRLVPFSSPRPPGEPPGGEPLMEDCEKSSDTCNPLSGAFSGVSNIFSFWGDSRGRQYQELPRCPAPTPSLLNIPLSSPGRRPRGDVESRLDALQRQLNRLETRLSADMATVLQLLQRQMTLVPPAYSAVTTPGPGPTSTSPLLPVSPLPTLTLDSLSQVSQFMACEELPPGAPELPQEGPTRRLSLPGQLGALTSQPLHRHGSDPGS

| Compound | hERG current change (%, negative = inhibition) at 1uM |
| --- | --- |
| C#CCOCCOCCOCCNc1nc(N2CCN(C(=O)C([C@@H](C)CC)n3cc(C(N)Cc4ccc(O)cc4)nn3)CC2)nc(N2CCN(C(=O)[C@H](CCC(=O)O)n3cc(C(N)CO)nn3)CC2)n1.Cl (stereo partly shown) | 10.5% |
| NNc1nnnc2c1sc1nc(N3CCOCC3)c3c(c12)CCCC3 | -0.882% |
| O=C(c1c[nH]c(C(=O)C(Cl)(Cl)Cl)c1)c1ccc(F)cc1F | 0.543% |
| CCOCCCNC(=O)c1oc2ccc(S(=O)(=O)N3CCOCC3)cc2c1C | 15.3% |
| CC1CN(C(=O)c2ccccc2C(=O)c2ncc[nH]2)CC(C)O1 (stereo not shown) | 10.1% |
| CCOc1ccccc1NC(=O)COC(=O)c1cccc(-c2ccc(OC(C)=O)cc2)c1 | 9.74% |
| CCCN1CCN(CCCNC(=O)CCCn2nc(C)c3sc4ccccc4c3c2=O)CC1 | 8.6% |
| Cc1cc(C)cc(C(=O)Nc2ccc(NC(=O)c3cccs3)cc2)c1 | -9.91% |
| Cc1ccc(S(=O)(=O)N2CCC(c3nc4c(nnn4Cc4ccccc4)c(=O)[nH]3)CC2)cc1 | 10.1% |
| CCN1CCN(CC(=O)Nc2cc(C)on2)CC1.O=C(O)C(=O)O | 6.23% |
| CC(=O)O[C@H]1C(=O)[C@@]2(C)[C@H]([C@H](OC(=O)c3ccccc3)[C@]3(O)C[C@H](OC(=O)[C@H](O)[C@@H](NC(=O)c4ccccc4)c4ccccc4)C(C)=C1C3(C)C)[C@]1(OC(C)=O)CO[C@@H]1C[C@@H]2O | 7.87% |
| COc1cc(NC(=O)CSc2nnnn2C2CCCC2)cc(OC)c1 | 10.6% |
| CCOC(=O)c1sc(=S)n2c1[nH]c(=O)c1ccc(C(=O)OC)cc12 | 6.91% |
| Cc1ccc(S(=O)(=O)N(CC(=O)NCCSc2ccccn2)c2cc(C)cc(C)c2)cc1 | -2.22% |
| O=C(O)c1ccc(CSc2nnc(-c3ccco3)o2)cc1 | 8.36% |
| CCSc1nnc(NC(=O)CSc2nnc(CNC(=O)c3cc(OC)c(OC)c(OC)c3)o2)s1 | 17.8% |
| c1ccc(-c2n[nH]nc2-c2ccccc2)cc1 | -1.43% |
| O=C(O)COc1ccc(S(=O)(=O)c2ccc(OCC(=O)O)cc2)cc1 | -8.01% |
| C=CCc1cc(C=O)cc(OC)c1OCc1c(Cl)cccc1Cl | -6.15% |
| O=C(Nc1ccccc1)C1=C[C@@H](c2ccc3c(c2)OCO3)C[C@@H](OCCCCO)O1 | 7.59% |
| S=c1[nH]nc(-c2ccncc2)n1/N=C/C(Cl)=C\c1ccccc1 | 17.3% |
| O=C(NC(=S)NNC(=O)c1cccs1)c1ccc(Br)o1 | 18.4% |

| Compound | hERG current change (%, negative = inhibition) at 1uM |
| --- | --- |
| CCc1cccc(NC(=S)N(CCCN2CCOCC2)C(C)c2cc3cccc(OC)c3o2)c1 (stereo not shown) | 10.5% |
| O=C(O)CC1S/C(=N/N=C/C=C/c2ccccc2[N+](=O)[O-])NC1=O (stereo not shown) | 13.2% |
| Cn1cc(SCC(=O)Nc2ccc3c(c2)OCO3)c2ccccc21 | 2.66% |
| COc1ccc(S(=O)(=O)N2CCOCC2)cc1NC(=O)CCc1nc2ccccc2c(=O)[nH]1 | 3.32% |
| COc1ccc(C(=O)Nc2cccnc2Cl)cc1OC | 16.8% |
| CCCCNC(=O)C1CCCN(S(=O)(=O)CC)C1 (stereo not shown) | 5.46% |
| Cc1ccc(NC(=O)c2cc(C(=O)c3cc(Cl)ccc3O)cn(-c3ccc(C)cc3)c2=O)cc1 | 10.9% |
| Cc1cc(C(=O)Nc2ccccc2C)c2ccccc2n1 | 10.8% |
| COc1ccc(-c2cc3ccccc3oc2=O)cc1NC(=O)c1ccc(Br)o1 | -4.09% |
| CCn1ncc(/C=N/NS(=O)(=O)c2ccc(Cl)cc2)c1C | -4.05% |
| Cc1ccc(C(OCC(O)CN2CCCCC2)c2ccccc2)cc1 (stereo not shown) | -68.6% |
| OCC1(Cc2ccc(F)cc2)CCCN(CCCC(F)(F)F)C1 (stereo not shown) | -0.727% |
| CCC(C)(C)C1CCC2(CC1)NC(=O)N(CC(=O)NCCc1c[nH]c3ccccc13)C2=O (stereo not shown) | 3.45% |
| CN(CC(=O)Nc1ccc(Cl)cc1)Cc1cc(=O)n2ccsc2n1 | -3.04% |
| O=C(NCc1ccccc1Cl)c1ccncc1 | 12.3% |
| O=C(CN1C(=O)C2CC=CCC2C1=O)Nc1ccc(Br)cc1 (stereo not shown) | -1.7% |
| C/C(=N\NC(=O)c1ccncc1)c1c(O)n(Cc2ccccc2)c(=O)[nH]c1=O | 17.5% |
| CCOC(=O)Cc1cc(=O)[nH]c(/N=C(\N)Nc2ccc(C)c(C)c2)n1 | 8.62% |
| Cc1c(C(=O)N2CCCC2)c(S(=O)(=O)N2CCCCC2)c(C)n1C | 5.32% |
| CC(C)C1CC(O)(C2(O)CCCCC2)ON1 (stereo not shown) | 6.16% |
| CCOc1ccc(/C=N/n2c(SC)nnc(C(C)(C)C)c2=O)cc1 | 12.2% |
